Results as given in article PMC4336329 (PLoS ONE, 2015).
The whole screen tested about 310,000 compounds, of which about 14,000 (4.5%) showed an effect of 50% or more. The effect is printed as a negative number. The list shows a part of the results.

Biological target: human ether-à-go-go-related gene (hERG) potassium channel (human, UniProt Q12809)
Test: primary screen, population patch clamp on CHO cells stably expressing hERG
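Also: peak tail current of the secondary pulse compared with the same well before compound.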

Sequence of human ether-à-go-go-related gene (hERG) potassium channel (Q12809 whole entry, looked up): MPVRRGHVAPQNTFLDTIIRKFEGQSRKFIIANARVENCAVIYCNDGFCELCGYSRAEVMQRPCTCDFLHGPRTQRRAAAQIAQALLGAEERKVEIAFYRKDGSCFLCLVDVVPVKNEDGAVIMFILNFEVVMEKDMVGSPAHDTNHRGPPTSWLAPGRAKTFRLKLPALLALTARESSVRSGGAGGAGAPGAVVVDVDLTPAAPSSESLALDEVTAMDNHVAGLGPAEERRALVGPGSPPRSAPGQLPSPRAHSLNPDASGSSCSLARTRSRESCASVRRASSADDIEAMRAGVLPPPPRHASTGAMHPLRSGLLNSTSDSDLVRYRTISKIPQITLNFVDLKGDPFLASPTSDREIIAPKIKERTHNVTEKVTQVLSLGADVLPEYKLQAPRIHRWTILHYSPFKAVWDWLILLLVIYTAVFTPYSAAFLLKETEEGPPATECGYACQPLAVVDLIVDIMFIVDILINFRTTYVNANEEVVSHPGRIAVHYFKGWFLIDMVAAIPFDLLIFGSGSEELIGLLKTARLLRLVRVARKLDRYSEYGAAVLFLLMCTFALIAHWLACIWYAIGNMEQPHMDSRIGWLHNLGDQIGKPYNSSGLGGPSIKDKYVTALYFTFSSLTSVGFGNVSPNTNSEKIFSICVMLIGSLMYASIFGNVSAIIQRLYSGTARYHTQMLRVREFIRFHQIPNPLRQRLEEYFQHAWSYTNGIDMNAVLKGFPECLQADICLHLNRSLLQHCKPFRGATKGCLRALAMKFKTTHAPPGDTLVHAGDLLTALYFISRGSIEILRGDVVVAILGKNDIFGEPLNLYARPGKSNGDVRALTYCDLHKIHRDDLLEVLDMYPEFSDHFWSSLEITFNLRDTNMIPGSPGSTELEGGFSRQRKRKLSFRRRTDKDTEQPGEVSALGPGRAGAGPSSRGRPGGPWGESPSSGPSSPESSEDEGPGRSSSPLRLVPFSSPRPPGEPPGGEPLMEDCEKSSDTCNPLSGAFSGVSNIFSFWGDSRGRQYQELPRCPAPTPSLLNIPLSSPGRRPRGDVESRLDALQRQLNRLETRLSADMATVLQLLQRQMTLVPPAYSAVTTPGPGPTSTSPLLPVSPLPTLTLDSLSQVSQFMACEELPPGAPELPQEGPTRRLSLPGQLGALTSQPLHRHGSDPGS

SMILES | hERG current change (%, negative = inhibition) at 10uM [%]
COc1ccc(CN2C3CCC2CC(NC(=O)c2cc(OC)c(OC)c(OC)c2)C3)cc1 (stereo not drawn) | -31.6
CCOC(=O)/C=C1\CC(=O)Nc2cc(C)c(C)cc2N1 | -4.79
Cc1cc(-c2ccccc2)n(-c2cc(N/N=C/c3ccccc3O)ncn2)n1 | -10.5
CN1C(=O)[C@H]2[C@@H](C3CC3)N3C(=O)CN(Cc4ccc(-c5ccccc5)cc4)C(=O)[C@@]3(C)[C@H]2C1=O | -43.2
CCOC(=O)N1CCN(C(=O)CCCCn2c(=S)[nH]c3ccsc3c2=O)CC1 | -0.808
C=CCN(C(=O)Nc1ccc(Cl)cc1)C1CC(=O)N(c2ccc(OC)cc2)C1=O (stereo not drawn) | -14.8
CCOc1ccc(C(=O)CCc2nc3ccccc3s2)cc1 | -31.8
CC(C)(C)NC(=O)C1Cc2ccccc2CN1S(=O)(=O)c1ccc(F)cc1 (stereo not drawn) | -0.712
COCCOC(=O)C1=C(C)NC(=O)NC1c1cn(-c2ccccc2)nc1-c1cccs1 (stereo not drawn) | 1.15
C#CCOCCOCCOCCNc1nc(N2CCN(C(=O)[C@H]([C@@H](C)O)n3cc(CCCC[NH3+])nn3)CC2)nc(N2CCN(C(=O)[C@H](CCCC[NH3+])n3cc(CCC(=O)O)nn3)CC2)n1.[Cl-] | 14.3
CC(C)C(NC(=O)C1CCCCC1)C(=O)NCCc1ccccc1 (stereo not drawn) | 3.14
CN1CCN(CC(=O)Nc2ccccc2C(F)(F)F)CC1.O=C(O)C(=O)O | 22.2
O=C(NNc1cc(Cl)cc(Cl)c1)c1c(F)cccc1Cl | 8.39
CCN(Cc1ccccc1)C(=O)c1cc2c(=O)oc3ccc(C)cc3c2s1 | 6.76
COc1ccc(Br)cc1CN(C)CC(O)COc1ccc(Br)cc1 (stereo not drawn) | -74.6
Cc1ccc(C(=O)O/N=C/c2c(N3CCOCC3)n(C)c3ccccc23)cc1 | 2.86
O=C(Nc1ccccc1N1CCCC1)c1ccc(Cl)cc1Cl | 8.88
CCCc1nc2sc3c(SCC(=O)NCc4ccco4)ncnc3c2c2c1CCC2 | 7.19
CCc1ccc(C(=O)Nc2nc(C)cs2)s1 | 4.04
Brc1ccccc1CN1CCC(N2CCCCC2)CC1 | -24.6
CC1CN(C(=O)N2c3ccccc3Sc3ccccc32)CC(C)O1 (stereo not drawn) | 4.07
O=C(CCc1c[nH]c2ccccc12)NCc1cccc(Cl)c1 | -13.8
COc1cccc(NC(=S)NC(=O)Cc2ccc(Cl)cc2)c1 | 19.8
O=C(Nc1ccc(O)cc1C(=O)O)c1cccc(Br)c1 | 19.6
CC(C)(C)n1nnnc1C(c1ccccc1)N1CCc2ccccc2C1 (stereo not drawn) | -0.455
CCOc1ccc(S(=O)(=O)N2CCC(C(=O)NCc3ccccc3CN3CCCC3)CC2)cc1 | -64.3
Cc1ccc(S(=O)(=O)N(C)/N=C/c2ccc(C(=O)O)cc2)cc1 | -7.51

SMILES | hERG current change (%, negative = inhibition) at 10uM [%]
O=C(N/N=C/c1ccc(N2CCOCC2)cc1)c1ccncc1 | 2.18
O=C(CN1C(=O)NC2(CCOc3ccccc32)C1=O)NCC(F)(F)F (stereo not drawn) | 1.08
COc1ccc2c(C=O)c[nH]c2c1 | 2.04
CCN1C(=O)c2ccc(C(=O)Nc3cccc(C(=O)O)c3)cc2C1=O | 21
C=C(C)[C@@]12OC3(c4ccccc4)O[C@@H]1C1[C@@H]4O[C@]4(CO)[C@@H](O)[C@]4(O)C(=O)C(C)=C[C@H]4[C@@]1(O3)[C@H](C)[C@H]2OC(=O)/C=C/C=C/c1ccccc1 (stereo partly drawn) | 11.9
CC1(C)C[C@@H](O)CC2(C1)C[C@]1(C)CC(O)[C@H]2C(C)(C)C1 (stereo partly drawn) | 2.87
COc1cccc(C(=O)N2CCN(Cc3cccc(F)c3)CC2)c1.O=C(O)C(=O)O | -7.48
O=C(NCCc1ccccc1)C(=O)NC1CCCCC1 | 1.61
COC(=O)/C(=C\Nc1ccccc1N)c1ncc(C(F)(F)F)cc1Cl | 3.74
Cc1ccc(/C=C2\SC(=S)N(CCCC(=O)NNC(=O)c3ccccc3O)C2=O)cc1 | -20.1
O=C(C1CCCCC1)N1CC(=O)N2CCc3ccccc3C2C1 (stereo not drawn) | 10.2
COc1cc(CN2CCCC(N3CCN(c4ccc(F)cc4)CC3)C2)ccc1F (stereo not drawn) | -64.4
Cc1sc2ncn(CC(=O)N3CCCCC3)c(=O)c2c1S(=O)(=O)N1CCC(C)CC1 | -3.97
CNC(=O)N(C1=NCC(C)S1)c1ccc(F)cc1F (stereo not drawn) | -24.2
COC(=O)C1=CN(C(C)C)C=C(C(=O)OC)C1c1cccc(OC)c1 | -9.85
Cc1cc(C)cc(OCC(=O)NNC(=O)C2CCCO2)c1 (stereo not drawn) | 9.83
Cc1c(Cl)cccc1NC(=S)Nc1ccc2[nH]c(=O)[nH]c2c1 | 4.53
CC(=O)Nc1ccc(C(=O)CSc2nnc(Cn3nnc4ccccc43)n2C)cc1 | 5.92
COc1cc(C#CC#CCN2CCCCC2)ccc1O.Cl | -3.87
Cc1cccc(NC(=O)C(C)N2CC=C(c3ccccc3)CC2)c1 (stereo not drawn) | -2.86
O=C(CCC1CCCCC1)Nc1nccs1 | -1.58
CSc1ccc(C2C3(C#N)C(N)=NC4(OCCO4)C23C#N)cc1 (stereo not drawn) | -3.53
COc1ccc(-c2csc(NC(=O)CSc3nnc(Nc4ccccc4C)s3)n2)cc1 | 16.6
CCN(CC(=O)NCc1cccs1)C(=O)c1cc(S(=O)(=O)NCc2ccccc2)ccc1C | -41.7
CC1=NN=C(c2ccccc2)C(c2c[nH]c3ccccc23)N1O (stereo not drawn) | 24.1
Cc1ccc2c(COC(=O)c3ccccc3Cl)cc(=O)oc2c1 | 24
O=C(CNS(=O)(=O)c1ccc([N+](=O)[O-])cc1)N/N=C\c1ccc(O)cc1 | 10
